Reference: publication PMC4336329 (PLoS ONE, 2015)
Hit rate of the full screen: of about 310,000 compounds, about 2,200 (0.71%) showed an effect of 50% or more. The effect is printed as a negative number. The list shows a part of the results.

target: human ether-à-go-go-related gene (hERG) potassium channel (human, UniProt Q12809); experiment: primary screen, population patch clamp on CHO cells stably expressing hERG
Sequence (Q12809 whole entry, looked up): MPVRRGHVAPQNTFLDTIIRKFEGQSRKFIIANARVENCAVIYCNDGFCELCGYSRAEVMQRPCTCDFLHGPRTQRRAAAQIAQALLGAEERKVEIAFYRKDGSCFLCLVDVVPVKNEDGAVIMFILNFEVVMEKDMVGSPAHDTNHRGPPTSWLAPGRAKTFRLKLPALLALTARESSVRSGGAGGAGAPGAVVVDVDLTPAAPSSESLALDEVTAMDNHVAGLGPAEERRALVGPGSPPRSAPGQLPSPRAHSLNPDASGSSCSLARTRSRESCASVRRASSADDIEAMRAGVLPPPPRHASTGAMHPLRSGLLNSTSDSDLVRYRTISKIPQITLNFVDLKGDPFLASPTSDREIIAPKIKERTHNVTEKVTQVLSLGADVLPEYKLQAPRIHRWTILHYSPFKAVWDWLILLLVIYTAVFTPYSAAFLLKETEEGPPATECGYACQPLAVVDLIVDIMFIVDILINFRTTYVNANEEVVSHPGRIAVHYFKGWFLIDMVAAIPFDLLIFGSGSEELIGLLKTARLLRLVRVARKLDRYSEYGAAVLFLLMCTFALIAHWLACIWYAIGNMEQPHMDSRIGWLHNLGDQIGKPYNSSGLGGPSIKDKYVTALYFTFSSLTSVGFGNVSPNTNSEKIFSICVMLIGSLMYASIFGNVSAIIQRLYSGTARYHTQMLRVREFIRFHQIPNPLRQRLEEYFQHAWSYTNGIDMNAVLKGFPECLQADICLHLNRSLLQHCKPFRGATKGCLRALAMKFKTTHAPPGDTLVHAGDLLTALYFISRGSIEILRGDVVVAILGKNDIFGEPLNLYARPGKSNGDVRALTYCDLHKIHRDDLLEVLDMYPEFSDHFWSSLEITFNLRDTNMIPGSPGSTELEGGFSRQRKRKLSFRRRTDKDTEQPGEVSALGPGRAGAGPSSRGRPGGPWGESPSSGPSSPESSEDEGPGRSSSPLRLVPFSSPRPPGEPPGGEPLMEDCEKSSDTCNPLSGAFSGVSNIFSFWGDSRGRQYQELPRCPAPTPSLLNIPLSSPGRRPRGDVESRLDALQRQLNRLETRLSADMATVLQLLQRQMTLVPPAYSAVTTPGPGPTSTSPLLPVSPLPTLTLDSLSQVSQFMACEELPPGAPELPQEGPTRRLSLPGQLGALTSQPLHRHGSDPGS

SMILES	hERG current change (%, negative = inhibition) at 1uM
COc1ccc(C2CC(c3ccc(Cl)c(Cl)c3)Nc3nc(N)nn32)cc1 (centres unmarked)	-3.36%
Cc1ccc(-c2cc(=O)[nH]c(NCc3ccccc3)n2)cc1	14.9%
COCCCn1c(SCC(=O)Nc2ccc(NC(C)=O)cc2)nc2sc3c(c2c1=O)CCC3	18.9%
CCCn1c(CCC(=O)O)nc2cc(S(=O)(=O)N(CC)CC)ccc21	0.496%
N=C1/C(=C\c2ccc(-c3cc(Cl)cc(Cl)c3)o2)C(=O)N=C2SC=C(c3ccccc3)N12	-4.59%
CCOC(=O)c1c[nH]c2c(C)cc(C)cc2c1=O	12.8%
CCOC(=O)C1=C(C)NC(=O)C1(NC(=O)c1cccnc1)C(F)(F)F (centres unmarked)	5.63%
Cc1nn(C)cc1-c1csc(N)n1	9.31%
Cc1nn(C)cc1C(C(=O)NC1CCCCC1)N(C(=O)Cc1cccs1)c1ccc(F)cc1 (centres unmarked)	5.81%
CC(C)CCNC(=O)c1cnn2c(C(F)(F)F)cc(-c3ccco3)nc12	6.03%
Cc1ccc(-n2cccc2/C=C2/C(=N)N3C(=NC2=O)SN=C3S(C)(=O)=O)cc1Cl	11.1%
Cn1nc(-c2ccccc2)c2cc([N+](=O)[O-])ccc21	13.1%
CC1=C(C(=O)Nc2ccc(CC(=O)NCc3ccccc3C)cc2)SCCO1	5.66%
O=C(CNC(=O)c1ccco1)NCCCc1ccccc1	7.92%
CCC(C)n1c(OC)nc2c1c(=O)n(C)c(=O)n2C (centres unmarked)	13.4%
Cc1ccc2nc(NC(=O)c3ccco3)sc2c1	11.7%
CC1CC(C)(C)n2c(O)c(N=NC(N)=S)c3cccc1c32 (centres unmarked)	22%
CCc1nnc(NC(=O)Nc2ccc(OC)cc2)s1	10.7%
CCCCCOC(=O)CSc1n[nH]c(=O)[nH]c1=O	-2.68%
COc1ccc(S(=O)(=O)NCC(=O)N(CC(=O)NCc2ccco2)Cc2ccccc2)cc1	2.88%
CCc1nn(C(C)C(=O)Nc2cccc(C)c2C)c(=O)c2cc3occc3n12 (centres unmarked)	8.38%
OCCNc1c2ccccc2nc2ccccc12	-3.35%
CCN1c2nc3c(C)cccn3c(=O)c2CC2(C(=O)N(C)C(=O)N(C)C2=O)C1C (centres unmarked)	5.07%

SMILES	hERG current change (%, negative = inhibition) at 1uM
CCOc1ccc(NC(=S)NNC(=S)Nc2cccc(C(F)(F)F)c2)cc1	14.5%
COc1ccc(CC(=O)N2CCOCC2)cc1OC	5.67%
COC(=O)C1=C(C)N(c2ccc(Cl)cc2)/C(=C/c2cccs2)C1=O	10.6%
Cc1cc(=O)[nH]c(SCC(=O)NCC2CCCCC2)c1C#N	16%
COCCNC(=O)CN1C(=O)c2cccc3cccc1c23	17.3%
CCOC(=O)CC(NC(=O)C1c2ccccc2Oc2ccccc21)c1ccc(C)cc1 (centres unmarked)	16.2%
COc1ccc(/C(O)=C2/C(=O)C(=O)N(Cc3ccco3)C2c2cccs2)cc1 (centres unmarked)	19.5%
Cc1c(C(=O)NCCCN2CCOCC2)oc2ccc(S(=O)(=O)N3CCOCC3)cc12	20.7%
CCOC(=O)C1=C(C)N=c2s/c(=C\c3ccc(OC(C)=O)c(OCC)c3)c(=O)n2C1/C=C/c1ccccc1 (centres unmarked)	13.6%
CC1=NN(C(N)=S)C(=O)C1N=Nc1ccc([N+](=O)[O-])cc1 (centres unmarked)	5.26%
C(=N\Nc1nc2ccccc2[nH]1)/C1CCCCC1	-6.22%
NC(=O)CSc1nc2c(sc3ccccc32)c(=O)n1CCCC(=O)NCC1CCCO1 (centres unmarked)	8.31%
COc1cc(/C=C/C(=O)O)cc(S(=O)(=O)Nc2cccc(S(=O)(=O)N3CCOCC3)c2)c1OC	9.38%
COc1cccc(C(c2nnnn2Cc2ccc(F)cc2)N2CCC(C(N)=O)CC2)c1OC (centres unmarked)	-6.74%
O=S(=O)(NC1=NCCCCC1)c1ccc(Cl)cc1	6.2%
CC(NCc1ccc2c(c1)OCO2)c1ccccc1.Cl (centres unmarked)	12.7%
CN1CC(C(=O)c2ccc(F)cc2)C(c2c(F)cccc2Cl)C1 (centres unmarked)	-25.1%
CC1=C(C(=O)O)N2C(=O)C(NC(=O)c3ccn(C)n3)C2SC1 (centres unmarked)	10.2%
Cc1cccc(-n2c(C)cc(/C=N/O)c2C)c1	-4.26%
CN(C(=O)COC(=O)c1ccc(Br)o1)c1c(N)n(Cc2ccccc2)c(=O)[nH]c1=O	15.5%
CN(C)S(=O)(=O)N1CCN(CC(=O)Nc2cc(Cl)ccc2Cl)CC1	-20.8%
O=C(c1cc(C(=O)N2CCCC2)cc([N+](=O)[O-])c1)N1CCCC1	1.45%
O=C(NCCN1C(=O)CSC1=O)C1CC(=O)N(c2ccccc2)C1 (centres unmarked)	2.75%

SMILES	hERG current change (%, negative = inhibition) at 1uM
NS(=O)(=O)c1ccc(NC(=S)NNC(=O)c2cccs2)cc1	7.69%
O=C(Nc1cccc(F)c1)/C(=C\c1ccco1)NC(=O)c1ccco1	24.2%
Cc1cc(C)n2nc(C(=O)OCC(=O)N3CC(C)CC(C)C3)nc2n1 (centres unmarked)	16.6%
Cc1cccc(/N=C/c2c(C)[nH]n(-c3ccccc3)c2=O)n1	6.86%
COC(=O)c1cn(CC(=O)N2CCCCCC2)c2ccccc12	8.63%
Cc1cc(C)c2c(N)c(C(=O)NCc3ccco3)sc2n1	10.2%
COc1cccc(NC(=O)CN(C)C(=O)CCSc2ccc(C)cc2)c1	2.68%
CCOC(=O)Nc1ccccc1C(=O)Nc1cc(C)cc(C)c1	19.5%
COc1ccc(NC(=S)N2CCN(CCN3C(=O)c4cccc5cccc(c45)C3=O)CC2)cc1	2.95%
COc1ccc(-n2c(O)c(/C=N/NS(=O)(=O)c3cccc([N+](=O)[O-])c3)c3ccccc3c2=O)cc1OC	3.15%
Cc1ccc(S(=O)(=O)NCCC(=O)Nc2ccc3c(c2)OCO3)cc1	7.95%
CC(C)OP(=O)(c1ccc(N(C)C)cc1)C(Nc1ccccc1)c1ccccc1 (centres unmarked)	12%
Cc1cccc(C(=O)Nc2ccc3ccccc3c2)c1	15.7%
COc1ccc(S(=O)(=O)N2CCCC(C(=O)NCc3ccc4c(c3)OCO4)C2)cc1 (centres unmarked)	9.72%
CC(C)S(=O)(=O)C/C(N)=N/OS(=O)(=O)c1ccc(Cl)cc1	8.08%
Cc1ccc2c(Cl)cc(Cl)c(OCC(=O)NCCc3ccccn3)c2n1	5.98%
CCCN1CCN(C(=O)C2CCN(S(=O)(=O)c3ccc4c(c3)NC(=O)C(C)S4)CC2)CC1 (centres unmarked)	23.9%
COc1ccccc1P(=O)(c1ccccc1)c1ccc([N+](=O)[O-])cc1 (centres unmarked)	-4.32%
Cc1ccc(NC(=O)CCC(=O)NNC(=O)/C=C/C(=O)O)c(C)c1	3.72%
O=c1[nH][nH]c(=O)c2cc(N3CCCC3)ccc12	3.68%
Cc1ccc(NC(=O)N2CCc3ccccc32)cc1C	3.01%
COc1cccc(CN2CC(C(=O)NCCSc3nnnn3C)CCC2=O)c1 (centres unmarked)	12.1%
Nc1c(S(=O)(=O)c2cccc(Cl)c2)c2nc3ccccc3nc2n1CCN1CCOCC1	2.5%

SMILES	hERG current change (%, negative = inhibition) at 1uM
CCC(C)(C)c1nnc(NC(=O)CCC2CCCCC2)s1	10.1%
O=C(COC(=O)CCCOc1ccc(Cl)cc1Cl)Nc1cccc(Cl)c1	4.25%
N#Cc1cn(CCCOc2ccccc2)c2ccccc12	11.3%
CC(C)c1cc(C(=O)O)n(-c2ccccc2)n1	9.09%
COc1cccc(/C=N/n2c(COc3ccccc3)n[nH]c2=S)c1O	11.5%
O=c1[nH]c(CCC2CCCC2)nc2ccccc12	4.67%
COc1ccc(S(=O)(=O)N(CC(=O)NCc2cccnc2)c2ccc(C)cc2)cc1OC	10%
COC(=O)c1ccc(Nc2cc(C)nc3nc(C)nn23)cc1	-8.75%
COc1ccccc1NC(=S)N(Cc1ccccc1)Cc1cccnc1	8.69%
Cc1cc([N+](=O)[O-])nn1CC(=O)N1CCN(Cc2ccccc2)CC1	1.28%
CCc1cc2c(=O)n3c(nc2s1)-c1[nH]c2ccc(OC)cc2c1CC3	17.9%
CSc1nsc(SC)c1C(=O)N1CCN(S(=O)(=O)c2ccc(C)cc2)C1C(C)C (centres unmarked)	12.8%
CCN(Cc1ccccc1)C(=O)Cn1c(=O)n(CCC(=O)N2CCCCC2)c(=O)c2sccc21	11.3%
CCOc1ccc(C(=O)Nc2cc(-c3nc4ccccc4[nH]3)ccc2Cl)cc1[N+](=O)[O-]	2.58%
CCCN1CC(=O)N2Cc3[nH]c4ccccc4c3C[C@H]2C1=O	13%
Cc1ccccc1-n1c(C)nnc1SCC(=O)NC1CCCc2ccccc21 (centres unmarked)	7.63%
CCOC(=O)CNc1nc(Cl)nc(Nc2ccccc2)n1	27.5%
COc1ccc(OCC(=O)NCCNC(=O)c2cccnc2)cc1	22.9%
CCOC(=O)c1c(C)[nH]c(C(=O)N/N=C/c2cc([N+](=O)[O-])ccc2O)c1C	23.1%
COc1ccc(-c2csc(NC(=O)c3ccccc3C(=O)O)n2)cc1	6.61%
